Over roughly 33,000 sequences, “E-score (-0.5 to 0.5)” has its median near -0.032; the highest 2% begin near 0.36. The list shows a part of the results.
target: T1, Sko1 (UniProt Q02100); assay: PBM E-score (8-mer binding enrichment) (E-score (-0.5 to 0.5)); higher = stronger / more preferred TF binding; most listed sequences are background and not binding sites; conditions: protein concentration: 200 nM; construct: GST-full length
T1 sequence: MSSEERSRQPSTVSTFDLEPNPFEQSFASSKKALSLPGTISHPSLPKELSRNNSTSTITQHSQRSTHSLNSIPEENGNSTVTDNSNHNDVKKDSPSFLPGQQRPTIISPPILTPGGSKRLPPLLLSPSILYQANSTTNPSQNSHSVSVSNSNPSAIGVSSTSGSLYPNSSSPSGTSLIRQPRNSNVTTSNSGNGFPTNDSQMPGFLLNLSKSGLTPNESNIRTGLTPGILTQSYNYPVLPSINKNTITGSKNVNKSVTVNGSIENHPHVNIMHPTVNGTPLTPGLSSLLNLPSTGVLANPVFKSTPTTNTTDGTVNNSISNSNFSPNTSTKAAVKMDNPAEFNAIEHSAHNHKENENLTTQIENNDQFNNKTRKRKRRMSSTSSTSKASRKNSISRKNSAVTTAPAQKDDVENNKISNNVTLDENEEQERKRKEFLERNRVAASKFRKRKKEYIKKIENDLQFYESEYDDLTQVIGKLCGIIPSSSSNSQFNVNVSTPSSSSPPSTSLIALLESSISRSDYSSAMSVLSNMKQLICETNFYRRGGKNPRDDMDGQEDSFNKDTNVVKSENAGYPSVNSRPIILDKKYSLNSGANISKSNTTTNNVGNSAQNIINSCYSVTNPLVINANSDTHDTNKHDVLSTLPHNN
In short: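 GST-tagged yeast TFs (full-length or DNA-binding domain) were made by PURExpress in vitro transcription/translation and applied at about 100-200 nM to universal all-10-mer Agilent arrays. The arrays were made double-stranded by primer extension, on fresh or once-stripped slides. Bound protein was detected with fluorescent anti-GST, and scans were normalised with masliner. Each ungapped eight-base word, pooled with its reverse complement, received an E-score (modified Wilcoxon-Mann-Whitney statistic) from the Universal PBM Analysis Suite.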

Sequence	PBM E-score
AGATTTCC	-0.0309
ACCGCTTG	-0.198
CAACGGGA	-0.0517
AGTAGAAT	0.173
CTGGTCTA	-0.127
GCCGACTA	0.0199
CACTGGCC	-0.164
CTCCGCAA	-0.139
CGTTTATA	0.278
AGAAGATA	0.122
CCATTAAA	-0.0804
CTTCCGGC	-0.259
CCTCGAGG	-0.0522
CGATACTA	0.103
CACTATCG	-0.0728
TGATGGCA	0.0236
AGCTTCGG	-0.239
ATGATTGC	0.145
AGGGGTGC	-0.241
CATCTGAG	-0.0554
GATAAGCA	0.149
ACGCAGCA	0.121
AGGCACAC	-0.19
ACGTGACC	0.292
GTGAGAGA	-0.0725

Sequence	PBM E-score
CAAAGACC	-0.0267
CACCCATA	-0.171
GATGGACA	-0.09
GAATCGGC	0.0193
CCAGGTTA	-0.197
GTTCAAAA	0.0536
ACACCTCA	-0.0252
ACCGGCTC	-0.231
ACCCTGAG	-0.0899
GACGCACA	0.36
ATAACTAG	0.124
CTATGATC	0.158
TCCGAAAA	3e-05
ACTCTCGG	-0.142
GGATATGA	0.077
CGGAAGAG	-0.168
ACCTACGG	-0.217
ACAAACTC	0.0691
AAAAATAC	0.22
CTCTCGAA	0.0273
GTGAACTA	0.236
TGCCGCCA	-0.23
GAAGGAAC	-0.138
AAGTCGGA	-0.0973
AATCAGAT	0.107

Sequence	PBM E-score
CGTATACG	0.393
AACTAGAC	0.163
AGCTCGAG	-0.117
GAGCGCAC	-0.0673
GTCATATA	0.373
GAATTTCC	-0.108
ATCAGGCC	-0.0403
CAGAGGCG	-0.281
TAGTTACA	0.0798
AAGTGAAT	0.167
CAGTCTTC	-0.187
CACCCGGC	-0.357
GTCCGGAC	-0.095
CTCGCCAG	-0.333
AGAATGAC	0.377
ACTCGCTG	-0.262
GTTCCAAC	0.0963
ACCTCAGG	-0.325
ACCAATCG	-0.0521
CACTCGAA	-0.00414
AGGGAGGG	-0.341
GGCTATCA	-0.0692
CTCTACCA	-0.215
AGAGGGAT	-0.301
AGTAGTGA	0.144

Sequence	PBM E-score
GCGGACAA	-0.0673
AAGAGTTG	0.12
AGTATGCA	-0.0795
CCAATAAA	0.0939
GACCTGTA	-0.134
AGTCCGGA	-0.134
AGTAGCGA	0.107
GGAAGCTA	-0.135
CTGGTTGA	-0.29
ACGGCATG	-0.0834
AGACACAG	-0.099
CACCACGA	0.204
CAGTATGA	0.129
CGGTATGC	-0.097
AAAATAAT	0.235
CTCGATAA	-0.114
AAAAGAAC	0.0862
AGACACAT	0.0361
CCCCGTCG	-0.245
ACATTTGG	-0.117
GTAGCTGA	0.03
GCACAGAC	-0.0296
CGAAGGTA	0.0326
ATAAAGGA	-0.211
ACGCAGAC	0.0967

Sequence	PBM E-score
ATGGGTGG	-0.0707
ACCGTTCA	-0.125
ATGTGACG	0.44
GTGCAAGA	0.0934
ATTATTCC	0.0482
ACTCACAT	0.0595
GCCCGCCC	-0.173
CACAGTAA	0.17
GTTAACCA	0.0228
GAAAGTGC	-0.11
GCTGAGCA	-0.135
CTTTAAGA	0.118
GAGCGACA	0.104
AGCTGTTG	-0.0671
TCGAGTAA	0.207
ATGAGAAG	0.0598
AGGCGCCT	-0.263
ACGCGAGC	0.185
GAGGTCCA	-0.189
CAAACTGG	-0.369
CACCCTCG	-0.155
AACGAATA	0.0548
GCAGTAGC	-0.269
ACGGGGAT	-0.26
CTTGGGTC	-0.348

Sequence	PBM E-score
TTGGAAAA	0.109
AGGCAATA	-0.0969
AAGTCTGA	-0.0839
CGAGGCCG	-0.332
CTAGGGAC	-0.221
GTGTCTCA	0.0768
CACAGAAC	-0.0732
CAGCCATA	-0.0756
AGTACGAC	0.157
AGGAGAAG	-0.214
AATAATAT	0.197
CTTGTCAA	0.0362
AGCCATTC	-0.0843
CCACATGG	-0.152
CACGTGTA	0.399
GACATCTA	0.0663
ATCCCCAT	-0.012
ATGTATGC	0.212
CCGTACGC	0.0653
CAAGGGAG	-0.339
AAGCCGGT	-0.179
GCGGGAGC	-0.331
TATTGTGA	0.183
AGCTTCGC	-0.0742
AAAGACTA	0.026

Sequence	PBM E-score
CGTCCTAG	0.102
CAGCTATC	-0.272
CCCCATCA	-0.0157
ATCTAATA	0.248
CGTAGATC	0.3
ACTAGACA	0.119
AGAGGATA	-0.0582
ACGTTCCG	0.0867
CCTGCCAG	-0.251
GTTCCGGA	-0.284
AGTGGTAC	0.0946
ATGATCCG	-0.017
ATGCAGCG	-0.168
AAAACGAC	0.113
AGAATAGG	-0.0397
GCTGTGCA	-0.273
CCCCCCGC	-0.414
GGCAGGCC	-0.345
GGCCAGCA	-0.328
CAAAGGTG	-0.113
GGAGACAA	-0.112
CCATCAGC	-0.0853
CCCAATCC	-0.111
AATCCTAT	0.164
CCAGGTTC	-0.285

Sequence	PBM E-score
GCGACCCA	-0.283
CTTTCCTC	-0.169
CCCACAAC	-0.0731
CGGTGGGA	-0.24
CACTCGCA	-0.0873
AAAACTCT	-0.0843
ATAGGCCA	-0.24
AGCGTGCA	-0.0757
ATTCACTG	0.0188
CTAATGGC	-0.00306
GATACTGC	-0.0769
CACCGGGG	-0.342
AGACGTCC	0.281
ATCTGAAA	0.128
CCCTGTAG	-0.306
ACAAACCG	-0.0685
GACAAGTA	-0.00194
CGCTCGAA	0.112
AGGTCCTG	-0.272
AAACCACA	0.118
AGAGCTTC	-0.17
ACGAAACG	0.281
TAGATAAA	0.0662
CACTCAAC	0.0667
GGTGGATA	-0.0862

Sequence	PBM E-score
GACTAACC	-0.0958
GCTGCTTA	-0.182
ACATAGTG	0.12
CCGTTTTA	-0.00533
CCAATTGG	0.0158
CAACCCCC	-0.273
CGGCCCGA	-0.303
CAAGTCCA	-0.235
CGAATAAG	0.0312
CAACACGA	0.102
AACGCAAG	0.0717
GTATCGTA	0.238
ACCACGCC	-0.125
GCCTACGA	0.0583
TCGACCGA	-0.21
AAGCAAGA	0.0771
ACCATTGA	0.0435
CTTATAGA	0.0676
TAAGTCAA	0.143
GACAATCC	-0.0455
ACCGGGCG	-0.393
CAATTGGA	-0.191
ATGGTTTC	0.108
ATGCTAGC	0.153
AGTACTGA	0.109

Sequence	PBM E-score
CAGACCGC	-0.156
ACTATCAG	-0.0859
AATCAGTC	0.0904
CACATTCA	-0.0156
AGATCTCG	-0.0715
CCAAAAAC	0.075
GAGTCGGA	-0.0478
GGTGCAAC	-0.161
AGCTCGCG	0.0911
ACGCCGAG	-0.0268
AGGACGCG	-0.115
CACGACCG	-0.199
AAAAGACG	0.302
ACGTCTGC	0.26
ACAAGTTA	0.0177
CAGTAGAG	-0.128
CTGGCAAG	-0.18
AGCTTATG	0.133
ATTATCTC	0.136
TAAGGAAA	0.0795
CGGTTCGA	-0.0173
AGAGCCGG	-0.265
ATTGTTAC	0.362
GGCTGGTA	-0.299
CCGATTCC	-0.0807

Sequence	PBM E-score
CCATCGGG	-0.0494
AGGTGCAG	-0.224
AGTTGTGC	0.0174
ATACTGGC	-0.127
GATCCACC	-0.176
AACGTGGT	0.261
AGAGCCCA	-0.289
GAATTCTC	-0.0901
GAAAGCCC	-0.0691
GCTCATAC	0.114
ATGAAGAA	0.117
ATCAAGCA	0.00175
TATGACGA	0.475
CTGCGGTC	-0.144
AGTCTATG	-0.148
CCTTAAAA	0.101
ATCCATAG	-0.198
CCAGTATA	-0.193
CCCTGGTC	-0.38
CCCAATGC	-0.269
ACCTGAAT	0.131
GCGCGGAC	0.0624
GTAATTTA	0.366
CGTTTTAA	0.167
ACCAAAGG	-0.256

Sequence	PBM E-score
CTAACTCA	0.117
ATCGAACA	0.104
CTAGATTC	-0.042
CGGATGGC	-0.1
ACATTTTA	0.243
GCGTTCGA	0.144
ACTCCACA	-0.0789
ATTCGGGC	-0.121
CTACTCAC	0.168
AACGGTTG	0.0655
TCCCTAAA	-0.0242
GAGTATAA	0.115
AGACGGAA	-0.136
ACGAATTA	0.297
AAAGTGAA	0.106
AAGTGACT	-0.0253
CCTGGTGA	-0.0993
CAATCTCC	-0.0733
AACCCGAC	-0.0528
GGCGCAAA	0.0135
AGCCCAAA	0.0865
CCCGCCAA	-0.241
GCCAGAGC	-0.4
CGGGCGGC	-0.252
ACAGCAGT	-0.233

Sequence	PBM E-score
CGTGGGTC	-0.0366
AGAGGGAC	-0.19
ATGTTTCC	-0.135
CGAAGCGA	-0.0592
AAACTCAA	0.0607
CAGTCAGC	-0.159
CTTCAAAA	-0.0291
AAAATGGA	0.136
ACTCAATA	0.18
GAATCGAA	0.0875
CATGTACG	0.303
GCAATAAC	-0.00651
GACCGACA	-0.152
GCTTTATA	-0.0585
AATAGGAC	0.0779
AATCGTAC	0.203
ATAGTATA	0.0612
CAGCGTTC	0.00371
AATGTATA	0.171
GCATGGAA	-0.12
ACTGGACA	-0.208
GACCGAGC	-0.34
ACTACTCT	0.0546
ACGTGACA	0.394
AGAAACCT	-0.0985

Sequence	PBM E-score
ACACCGAA	0.0601
AGCGTCTA	-0.146
GTCCGTCA	0.179
TACAACTA	-0.0218
AGCAGCAC	-0.111
ATGAAACA	0.0837
CTGTCGTC	0.21
AGGGGTCG	-0.175
CTGCTGAA	-0.248
GACCAGCC	-0.306
AACACTAT	0.228
AGTGTCAC	-0.00431
CCGTGCAA	-0.169
AGAGTAAG	0.0739
GGATGACC	-0.0794
TGAGACAA	-0.118
AAGGCACT	-0.168
ATGCGGTG	-0.226
GAACCATA	-0.0436
